According to a collection of fitness landscapes (doi:10.1126/science.1257360):
The list shows a part of the results.

B1: PhoQ; a variant is named by its letters at X, in order, P23837 (parent)
chain: MKKLLRLFFPLSLRVRFLLATAAVVLVLSLAYGMVALIGYSVSFDKTTFRLLRGESNLFYTLAKWENNKLHVELPENIDKQSPTMTLIYDENGQLLWAQRDVPWLMKMIQPDWLKSNGFHEIEADVNDTSLLLSGDHSIQQQLQEVREDDDDAEMTHSVAVNVYPATSRMPKLTIVVVDTIPVELKSSYMVWSWFIYVLSANLLLVIPLLWVAAWWSLRPIEALAKEVRELEEHNRELLNPATTRELTSLVRNLNRLLKSERERYDKYRTTLTDLTHSLKTPLXXLQXXLRSLRSEKMSVSDAEPVMLEQISRISQQIGYYLHRASMRGGTLLSRELHPVAPLLDNLTSALNKVYQRKGVNISLDISPEISFVGEQNDFVEVMGNVLDNACKYCLEFVEISARQTDEHLYIVVEDDGPGIPLSKREVIFDRGQRVDTLRPGQGVGLAVAREITEQYEGKIVAGESMLGGARMEVIFGRQHSAPKDE

Variants of: B1
Assay: enrichment ratio after two sorts for PhoP signalling (ratio (wild type AVST 3.29)); higher = more functional
Conditions: with PhoP (E. coli)

IFFI and LKGI cannot be ordered by enrichment ratio: no more than 0.25 for the first, no more than 0.25 for the second.

TRFH and GRRS cannot be ordered by enrichment ratio: no more than 0.25 for the first, no more than 0.25 for the second.

IVHD and WLIS cannot be ordered by enrichment ratio: no more than 0.25 for the first, no more than 0.25 for the second.

TMWY and IGGR cannot be ordered by enrichment ratio: no more than 0.25 for the first, no more than 0.25 for the second.

KYWD and CAIT cannot be ordered by enrichment ratio: no more than 0.25 for the first, no more than 0.25 for the second.

LIWR and APQI cannot be ordered by enrichment ratio: no more than 0.25 for the first, no more than 0.25 for the second.

RPCG and APQD cannot be ordered by enrichment ratio: no more than 0.25 for the first, no more than 0.25 for the second.

KKMS and LVCQ cannot be ordered by enrichment ratio: no more than 0.25 for the first, no more than 0.25 for the second.

LTYP and NWRY cannot be ordered by enrichment ratio: no more than 0.25 for the first, no more than 0.25 for the second.

ERTM and IYIE cannot be ordered by enrichment ratio: no more than 0.25 for the first, no more than 0.25 for the second.

EANF and PLCN cannot be ordered by enrichment ratio: no more than 0.25 for the first, no more than 0.25 for the second.

GHFE and AKMF cannot be ordered by enrichment ratio: no more than 0.25 for the first, no more than 0.25 for the second.

First: TNVN
Second: VKTQ
The enrichment ratio of the first is higher: 0.832 for the first, no more than 0.25 for the second.

VKRV and FGRW cannot be ordered by enrichment ratio: no more than 0.25 for the first, no more than 0.25 for the second.

PRCP and VNMP cannot be ordered by enrichment ratio: no more than 0.25 for the first, no more than 0.25 for the second.

ASYA and YKTV cannot be ordered by enrichment ratio: no more than 0.25 for the first, no more than 0.25 for the second.

MIAD and VALK cannot be ordered by enrichment ratio: no more than 0.25 for the first, no more than 0.25 for the second.

FNLA and NHFE cannot be ordered by enrichment ratio: no more than 0.25 for the first, no more than 0.25 for the second.

DCYC and KFFL cannot be ordered by enrichment ratio: no more than 0.25 for the first, no more than 0.25 for the second.

IIGH and LGPY cannot be ordered by enrichment ratio: no more than 0.25 for the first, no more than 0.25 for the second.

RMVL and YHLA cannot be ordered by enrichment ratio: no more than 0.25 for the first, no more than 0.25 for the second.

SLQQ and WDMS cannot be ordered by enrichment ratio: no more than 0.25 for the first, no more than 0.25 for the second.

RDNP and IIDD cannot be ordered by enrichment ratio: no more than 0.25 for the first, no more than 0.25 for the second.

PGRN and YPLT cannot be ordered by enrichment ratio: no more than 0.25 for the first, no more than 0.25 for the second.

NVVL and ISNN cannot be ordered by enrichment ratio: no more than 0.25 for the first, no more than 0.25 for the second.

QYYN and SIWV cannot be ordered by enrichment ratio: no more than 0.25 for the first, no more than 0.25 for the second.

YHEM and SYYI cannot be ordered by enrichment ratio: no more than 0.25 for the first, no more than 0.25 for the second.

NHKY and YNGV cannot be ordered by enrichment ratio: no more than 0.25 for the first, no more than 0.25 for the second.

NASW and VYRP cannot be ordered by enrichment ratio: no more than 0.25 for the first, no more than 0.25 for the second.

GWCC and HCIH cannot be ordered by enrichment ratio: no more than 0.25 for the first, no more than 0.25 for the second.

FGSD and FRKW cannot be ordered by enrichment ratio: no more than 0.25 for the first, no more than 0.25 for the second.

NINS and HWTW cannot be ordered by enrichment ratio: no more than 0.25 for the first, no more than 0.25 for the second.

YECF and WFFN cannot be ordered by enrichment ratio: no more than 0.25 for the first, no more than 0.25 for the second.

SAGR and MRAC cannot be ordered by enrichment ratio: no more than 0.25 for the first, no more than 0.25 for the second.

NEVL and RRLA cannot be ordered by enrichment ratio: no more than 0.25 for the first, no more than 0.25 for the second.

First: YYCP
Second: SKCA
The enrichment ratio of the first is lower: no more than 0.25 for the first, 11.7 for the second.

Going from AQGH to AIWQ, the enrichment ratio falls from 6.7 to 4.28.

KHFP and IFYS cannot be ordered by enrichment ratio: no more than 0.25 for the first, no more than 0.25 for the second.

HFWC and QWGH cannot be ordered by enrichment ratio: no more than 0.25 for the first, no more than 0.25 for the second.

VWSI and SSDE cannot be ordered by enrichment ratio: no more than 0.25 for the first, no more than 0.25 for the second.

RWIK and NKCP cannot be ordered by enrichment ratio: no more than 0.25 for the first, no more than 0.25 for the second.

WENL and KGMQ cannot be ordered by enrichment ratio: no more than 0.25 for the first, no more than 0.25 for the second.

WSMD and MKDK cannot be ordered by enrichment ratio: no more than 0.25 for the first, no more than 0.25 for the second.

HTFE and QCVL cannot be ordered by enrichment ratio: no more than 0.25 for the first, no more than 0.25 for the second.

IWQI and DANR cannot be ordered by enrichment ratio: no more than 0.25 for the first, no more than 0.25 for the second.

EQQM and PWSP cannot be ordered by enrichment ratio: no more than 0.25 for the first, no more than 0.25 for the second.

WFLS and WCWF cannot be ordered by enrichment ratio: no more than 0.25 for the first, no more than 0.25 for the second.

Compared with GRAY, TSMQ is higher in enrichment ratio: no more than 0.25 for the first, 13.9 for the second.

QHAN and IPYG cannot be ordered by enrichment ratio: no more than 0.25 for the first, no more than 0.25 for the second.

First: RCNQ
Second: QREQ
The enrichment ratio of the first is higher: 1.27 for the first, no more than 0.25 for the second.

VIYS and MVTN cannot be ordered by enrichment ratio: no more than 0.25 for the first, no more than 0.25 for the second.

SNHA and IPTD cannot be ordered by enrichment ratio: no more than 0.25 for the first, no more than 0.25 for the second.

AGEW and NQYW cannot be ordered by enrichment ratio: no more than 0.25 for the first, no more than 0.25 for the second.

GPGL and EKEM cannot be ordered by enrichment ratio: no more than 0.25 for the first, no more than 0.25 for the second.

Going from PYRG to TMDM, the enrichment ratio rises from no more than 0.25 to 6.03.

PEDW and MDTG cannot be ordered by enrichment ratio: no more than 0.25 for the first, no more than 0.25 for the second.

YWAA and KKAK cannot be ordered by enrichment ratio: no more than 0.25 for the first, no more than 0.25 for the second.

First: TPAT
Second: TSTG
The enrichment ratio of the first is lower: no more than 0.25 for the first, 7.34 for the second.

Compared with KFET, ACST is higher in enrichment ratio: no more than 0.25 for the first, 8.79 for the second.

First: SLTT
Second: GKEY
The enrichment ratio of the first is higher: 2.35 for the first, no more than 0.25 for the second.

SIHY and HELN cannot be ordered by enrichment ratio: no more than 0.25 for the first, no more than 0.25 for the second.

IHTW and NGQW cannot be ordered by enrichment ratio: no more than 0.25 for the first, no more than 0.25 for the second.

IHWK and AAFQ cannot be ordered by enrichment ratio: no more than 0.25 for the first, no more than 0.25 for the second.

TQDS and HQIG cannot be ordered by enrichment ratio: no more than 0.25 for the first, no more than 0.25 for the second.

Compared with RLMW, RFCQ is higher in enrichment ratio: no more than 0.25 for the first, 0.982 for the second.

YDIG and SYYG cannot be ordered by enrichment ratio: no more than 0.25 for the first, no more than 0.25 for the second.

CAFR and MSLW cannot be ordered by enrichment ratio: no more than 0.25 for the first, no more than 0.25 for the second.

DMSV and ETNE cannot be ordered by enrichment ratio: no more than 0.25 for the first, no more than 0.25 for the second.

CFLM and GGPH cannot be ordered by enrichment ratio: no more than 0.25 for the first, no more than 0.25 for the second.

IFAH and NQIL cannot be ordered by enrichment ratio: no more than 0.25 for the first, no more than 0.25 for the second.

AWAH and AVQV cannot be ordered by enrichment ratio: no more than 0.25 for the first, no more than 0.25 for the second.

YRPD and KLNL cannot be ordered by enrichment ratio: no more than 0.25 for the first, no more than 0.25 for the second.

GHGR and AMRD cannot be ordered by enrichment ratio: no more than 0.25 for the first, no more than 0.25 for the second.

WSQC and FHAH cannot be ordered by enrichment ratio: no more than 0.25 for the first, no more than 0.25 for the second.

PAHE and LLTL cannot be ordered by enrichment ratio: no more than 0.25 for the first, no more than 0.25 for the second.

GIWW and DFTD cannot be ordered by enrichment ratio: no more than 0.25 for the first, no more than 0.25 for the second.

LGHF and SHHA cannot be ordered by enrichment ratio: no more than 0.25 for the first, no more than 0.25 for the second.

SSPW and LMKH cannot be ordered by enrichment ratio: no more than 0.25 for the first, no more than 0.25 for the second.

Compared with DNMT, MIVL is higher in enrichment ratio: no more than 0.25 for the first, 2.51 for the second.

LMLP and EQMI cannot be ordered by enrichment ratio: no more than 0.25 for the first, no more than 0.25 for the second.

SWIW and PPAQ cannot be ordered by enrichment ratio: no more than 0.25 for the first, no more than 0.25 for the second.

YWMI and LWWH cannot be ordered by enrichment ratio: no more than 0.25 for the first, no more than 0.25 for the second.

YGCK and NPKC cannot be ordered by enrichment ratio: no more than 0.25 for the first, no more than 0.25 for the second.

KNQQ and NAPG cannot be ordered by enrichment ratio: no more than 0.25 for the first, no more than 0.25 for the second.

QYKL and FQWR cannot be ordered by enrichment ratio: no more than 0.25 for the first, no more than 0.25 for the second.

Going from GEML to YALE, the enrichment ratio rises from no more than 0.25 to 14.7.

Compared with RAHW, TLTA is higher in enrichment ratio: no more than 0.25 for the first, 10.5 for the second.

ATDW and KPLN cannot be ordered by enrichment ratio: no more than 0.25 for the first, no more than 0.25 for the second.

FQCR and GRIY cannot be ordered by enrichment ratio: no more than 0.25 for the first, no more than 0.25 for the second.

PRST and AMRM cannot be ordered by enrichment ratio: no more than 0.25 for the first, no more than 0.25 for the second.

Going from AIAY to HRTM, the enrichment ratio falls from 6.61 to no more than 0.25.

RDMA and ANPQ cannot be ordered by enrichment ratio: no more than 0.25 for the first, no more than 0.25 for the second.

YGYF and NIDL cannot be ordered by enrichment ratio: no more than 0.25 for the first, no more than 0.25 for the second.

AYEK and NFAV cannot be ordered by enrichment ratio: no more than 0.25 for the first, no more than 0.25 for the second.

HDQC and GPSI cannot be ordered by enrichment ratio: no more than 0.25 for the first, no more than 0.25 for the second.

HSEL and TKHT cannot be ordered by enrichment ratio: no more than 0.25 for the first, no more than 0.25 for the second.

GKGI and EIPA cannot be ordered by enrichment ratio: no more than 0.25 for the first, no more than 0.25 for the second.

In the case of FISQ, the enrichment ratio is reported as no more than 0.25.
